# Source: the supplement of paper PMC8728848
# The other results are listed elsewhere or left out.
# B1: LgFlo1 (Saccharomyces pastorianus), B3IUA8 (protein)
# chain: SGSTQACLPVGSRKNGMNVNFYKYSLQDSTTYSDPQYMAYKYSDTKKLGSVSGQTHLSIYYGPNTAFWNTASWSSDLFGFYTTPTNVTVEMTGYFLPPQTGSYTFKFATVDDSAILSVGGSIAFECCAQEQPPITSTDFTINGIKPWDAATPTDIKGSTYMYAGYYYPIKIVYSNAKALARLPVSVVLPDGTEVNDDFEGYVYSFDDDLSQSNCTIPDPSKHTTS
# Tests used:
# Assay in all cases: glycan array binding signal (z-score within array); higher = stronger binding
# Details in all cases: glycan notation: IUPAC condensed, linker removed
# [1] = biological target: Fuc(a1-2)[GalNAc(a1-3)]Gal(b1-3)GlcNAc(b1-3)GalNAc
# Method in brief: (§1)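 The binding signal is a Z-score computed within each array. Data were drawn from 3228 arrays in the Consortium for Functional Glycomics database, restricted to those with a known protein sequence. Scores were averaged over arrays of the same protein sequence at different concentrations or buffers, and over linkers, and negative values can be taken as non-binding.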
# [2] = biological target: Fuc(a1-2)[GalNAc(a1-3)]Gal(b1-3)GlcNAc(b1-6)GalNAc
# Method in brief: as §1
# [3] = biological target: Fuc(a1-2)[GalNAc(a1-3)]Gal(b1-4)Glc
# Method in brief: as §1
# [4] = biological target: Fuc(a1-2)[GalNAc(a1-3)]Gal(b1-4)GlcNAc
# Method in brief: as §1
# [5] = biological target: Fuc(a1-2)[GalNAc(a1-3)]Gal(b1-4)GlcNAc(b1-2)Man
# Method in brief: as §1
# [6] = biological target: Fuc(a1-2)[GalNAc(a1-3)]Gal(b1-4)GlcNAc(b1-2)Man(a1-3)[Fuc(a1-2)[GalNAc(a1-3)]Gal(b1-4)GlcNAc(b1-2)Man(a1-6)]Man(b1-4)GlcNAc(b1-4)GlcNAc
# Method in brief: as §1
# [7] = biological target: Fuc(a1-2)[GalNAc(a1-3)]Gal(b1-4)GlcNAc(b1-2)Man(a1-3)[Fuc(a1-2)[GalNAc(a1-3)]Gal(b1-4)GlcNAc(b1-2)Man(a1-6)]Man(b1-4)GlcNAc(b1-4)[Fuc(a1-6)]GlcNAc
# Method in brief: as §1
# [8] = biological target: Fuc(a1-2)[GalNAc(a1-3)]Gal(b1-4)GlcNAc(b1-3)Gal(b1-4)GlcNAc
# Method in brief: as §1
# [9] = biological target: Fuc(a1-2)[GalNAc(a1-3)]Gal(b1-4)GlcNAc(b1-3)Gal(b1-4)GlcNAc(b1-3)Gal(b1-4)GlcNAc
# Method in brief: as §1
# [10] = biological target: Fuc(a1-2)[GalNAc(a1-3)]Gal(b1-4)GlcNAc(b1-3)GalNAc
# Method in brief: as §1
# [11] = biological target: Fuc(a1-2)[GalNAc(a1-3)]Gal(b1-4)GlcNAc(b1-3)[Fuc(a1-2)[GalNAc(a1-3)]Gal(b1-4)GlcNAc(b1-6)]GalNAc
# Method in brief: as §1
# [12] = biological target: Fuc(a1-2)[GalNAc(a1-3)]Gal(b1-4)GlcNAc(b1-6)GalNAc
# Method in brief: as §1
# [13] = biological target: Fuc(a1-2)[GalNAc(a1-3)]Gal(b1-4)[Fuc(a1-3)]GlcNAc
# Method in brief: as §1
# [14] = biological target: Fuc(a1-2)[GalNAc(a1-3)]Gal(b1-4)[Fuc(a1-3)]GlcNAc(b1-3)GalNAc
# Method in brief: as §1
# [15] = biological target: Fuc(a1-2)[GalNAc(a1-4)]Gal(b1-4)GlcNAc
# Method in brief: as §1
# [16] = biological target: Fuc(a1-2)[GalNAc(b1-3)]Gal
# Method in brief: as §1
# Fuc(a1-3)GlcNAc = biological target: Fuc(a1-3)GlcNAc
# Method in brief: as §1
# [17] = biological target: Fuc(a1-3)[Gal(b1-4)]Glc6S
# Method in brief: as §1
# [18] = biological target: Fuc(a1-3)[Gal(b1-4)]GlcNAc
# Method in brief: as §1
# [19] = biological target: Fuc(a1-3)[Gal(b1-4)]GlcNAc(b1-2)Man
# Method in brief: as §1
# [20] = biological target: Fuc(a1-3)[Gal(b1-4)]GlcNAc(b1-2)Man(a1-3)[Fuc(a1-3)[Gal(b1-4)]GlcNAc(b1-2)Man(a1-6)]Man(b1-4)GlcNAc(b1-4)GlcNAc
# Method in brief: as §1
# [21] = biological target: Fuc(a1-3)[Gal(b1-4)]GlcNAc(b1-2)Man(a1-3)[Fuc(a1-3)[Gal(b1-4)]GlcNAc(b1-2)Man(a1-6)]Man(b1-4)GlcNAc(b1-4)[Fuc(a1-6)]GlcNAc
# Method in brief: as §1
# [22] = biological target: Fuc(a1-3)[Gal(b1-4)]GlcNAc(b1-3)Gal(b1-3)[Fuc(a1-4)]GlcNAc
# Method in brief: as §1
# [23] = biological target: Fuc(a1-3)[Gal(b1-4)]GlcNAc(b1-3)Gal(b1-4)[Fuc(a1-3)]GlcNAc
# Method in brief: as §1
# [24] = biological target: Fuc(a1-3)[Gal(b1-4)]GlcNAc(b1-3)Gal(b1-4)[Fuc(a1-3)]GlcNAc(b1-3)Gal(b1-4)[Fuc(a1-3)]GlcNAc
# Method in brief: as §1
# [25] = biological target: Fuc(a1-3)[Gal(b1-4)]GlcNAc(b1-3)GalNAc
# Method in brief: as §1
# [26] = biological target: Fuc(a1-3)[Gal(b1-4)]GlcNAc(b1-6)GalNAc
# Method in brief: as §1
# [27] = biological target: Fuc(a1-3)[Gal(b1-4)]GlcNAc(b1-6)[Gal(b1-3)GlcNAc(b1-3)]Gal(b1-4)Glc
# Method in brief: as §1
# [28] = biological target: Fuc(a1-3)[Gal(b1-4)]GlcNAc6S
# Method in brief: as §1
# [29] = biological target: Fuc(a1-3)[Gal3S(b1-4)]Glc
# Method in brief: as §1
# [30] = biological target: Fuc(a1-3)[Gal3S(b1-4)]GlcNAc
# Method in brief: as §1
# [31] = biological target: Fuc(a1-3)[Gal3S(b1-4)]GlcNAc6S
# Method in brief: as §1
# [32] = biological target: Fuc(a1-3)[GalNAc(b1-4)]GlcNAc
# Method in brief: as §1
# [33] = biological target: Fuc(a1-3)[GalNAc(b1-4)]GlcNAc6S
# Method in brief: as §1
# Fuc(a1-4)GlcNAc = biological target: Fuc(a1-4)GlcNAc
# Method in brief: as §1
# Fuc(b1-3)GlcNAc = biological target: Fuc(b1-3)GlcNAc
# Method in brief: as §1
# Gal(a1-2)Gal = biological target: Gal(a1-2)Gal
# Method in brief: as §1
# Gal(a1-3)Gal = biological target: Gal(a1-3)Gal
# Method in brief: as §1
# Gal(a1-3)Gal(b1-3)GlcNAc = biological target: Gal(a1-3)Gal(b1-3)GlcNAc
# Method in brief: as §1
# [34] = biological target: Gal(a1-3)Gal(b1-3)GlcNAc(b1-2)Man
# Method in brief: as §1
# [35] = biological target: Gal(a1-3)Gal(b1-3)GlcNAc(b1-2)Man(a1-3)[Gal(a1-3)Gal(b1-3)GlcNAc(b1-2)Man(a1-6)]Man(b1-4)GlcNAc(b1-4)GlcNAc
# Method in brief: as §1
# [36] = biological target: Gal(a1-3)Gal(b1-3)GlcNAc(b1-3)GalNAc
# Method in brief: as §1
# [37] = biological target: Gal(a1-3)Gal(b1-3)GlcNAc(b1-6)GalNAc
# Method in brief: as §1
# [38] = biological target: Gal(a1-3)Gal(b1-3)[Fuc(a1-4)]GlcNAc(b1-2)Man(a1-3)[Gal(a1-3)Gal(b1-3)[Fuc(a1-4)]GlcNAc(b1-2)Man(a1-6)]Man(b1-4)GlcNAc(b1-4)GlcNAc
# Method in brief: as §1
# Gal(a1-3)Gal(b1-4)Glc = biological target: Gal(a1-3)Gal(b1-4)Glc
# Method in brief: as §1
binder,measurement,setting,value
B1,glycan array binding signal (z-score),[1],-0.227
same,glycan array binding signal (z-score),[2],-0.33
same,glycan array binding signal (z-score),[3],-0.064
same,glycan array binding signal (z-score),[4],-0.337
same,glycan array binding signal (z-score),[5],-0.379
same,glycan array binding signal (z-score),[6],-0.075
same,glycan array binding signal (z-score),[7],0.204
same,glycan array binding signal (z-score),[8],-0.328
same,glycan array binding signal (z-score),[9],-0.234
same,glycan array binding signal (z-score),[10],-0.226
same,glycan array binding signal (z-score),[11],1.81
same,glycan array binding signal (z-score),[12],-0.114
same,glycan array binding signal (z-score),[13],0.711
same,glycan array binding signal (z-score),[14],-0.09
same,glycan array binding signal (z-score),[15],-0.156
same,glycan array binding signal (z-score),[16],-0.263
same,glycan array binding signal (z-score),Fuc(a1-3)GlcNAc,-0.276
same,glycan array binding signal (z-score),[17],-0.052
same,glycan array binding signal (z-score),[18],0.072
same,glycan array binding signal (z-score),[19],-0.224
same,glycan array binding signal (z-score),[20],-0.211
same,glycan array binding signal (z-score),[21],-0.108
same,glycan array binding signal (z-score),[22],-0.271
same,glycan array binding signal (z-score),[23],0.754
same,glycan array binding signal (z-score),[24],-0.157
same,glycan array binding signal (z-score),[25],-0.263
same,glycan array binding signal (z-score),[26],-0.202
same,glycan array binding signal (z-score),[27],-0.296
same,glycan array binding signal (z-score),[28],-0.17
same,glycan array binding signal (z-score),[29],-0.104
same,glycan array binding signal (z-score),[30],-0.201
same,glycan array binding signal (z-score),[31],0.042
same,glycan array binding signal (z-score),[32],-0.264
same,glycan array binding signal (z-score),[33],-0.382
same,glycan array binding signal (z-score),Fuc(a1-4)GlcNAc,1.75
same,glycan array binding signal (z-score),Fuc(b1-3)GlcNAc,0.111
same,glycan array binding signal (z-score),Gal(a1-2)Gal,-0.067
same,glycan array binding signal (z-score),Gal(a1-3)Gal,0.046
same,glycan array binding signal (z-score),Gal(a1-3)Gal(b1-3)GlcNAc,2.47
same,glycan array binding signal (z-score),[34],-0.127
same,glycan array binding signal (z-score),[35],0.576
same,glycan array binding signal (z-score),[36],-0.286
same,glycan array binding signal (z-score),[37],-0.259
same,glycan array binding signal (z-score),[38],0.35
same,glycan array binding signal (z-score),Gal(a1-3)Gal(b1-4)Glc,-0.306
